# Assay results taken from PubChem BioAssay AID686978 (National Center for Advancing Translational Sciences (NCATS), 2013).
# The campaign covered roughly 420,000 compounds. About 64,000 (15%) were called active. Inconclusive results, whose numbers are uncertain, are shown with a selection of clear calls. Calls follow the shape of the dose curve; as a rule, active = well fitted inhibition curve with a large enough effect; inconclusive = small, poorly fitted or top-dose-only effect; inactive = flat fitted curve, though single readings scatter. Potencies of inconclusive entries are left out as doubtful fits.
# Assay: qHTS for Inhibitors of human tyrosyl-DNA phosphodiesterase 1 (TDP1): qHTS in cells in absence of CPT; also: nearly all actives have a fitted effect of over 55% in size
# Conditions: DT40 Tdp1-/- hTDP1 cells, no CPT, ATP luminescence, 48 h; activity change, negative = growth inhibition: at 46.2 µM (top of the series)
# Procedure, shortened: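 Seeded 400 DT40-hTDP1 cells/well (vehicle DMSO, no 20 nM CPT); pinned compounds; ≥48 hr at 37 °C; CellTiter-Glo luminescence as viability measure.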
# % is scaled to controls: 0 for no effect and ±100 for the full control effect; potency is read from the fitted curve at half-maximal effect; tags tell the direction and shape of the fitted curve.
Structure (SMILES),Potency,"activity change, negative = growth inhibition"
Cc1cc(NC(=O)c2ccccc2F)ccc1-c1nc2ccccc2s1,"inconclusive [inhibitor, single point]",
CCOC(=O)C1CCCN(C(=O)/C=C/c2cccc([N+](=O)[O-])c2)C1 (stereo not given),"inconclusive [inhibitor, single point]",
O=C(CSc1nnc(-c2ccc(Cl)cc2)n1-c1ccc(Cl)cc1)N/N=C/c1ccco1,"inconclusive [inhibitor, single point]",
CN1CCN(C(=O)c2cccc3c(-c4ccc(F)c(F)c4)coc23)CC1,"inconclusive [inhibitor, single point]",
O=C(NCC(c1cccnc1)N1CCN(c2ccccc2F)CC1)C1CCCCC1 (stereo not given),active: 10.3 µM,
CN(C=[N+](C)C)c1cccc2c1C(=O)c1ccccc1C2=O,,inconclusive: -33.6% [inhibitor]
Cc1ccc(-c2c3c(=O)n(C)c(=O)n(C)c3cn2Cc2ccccc2)cc1,"inconclusive [inhibitor, single point]",
CCc1ccc(NC(=O)c2sc(-n3nc(C)c(CCC(C)C)c3C)nc2C)cc1,"inconclusive [inhibitor, single point]",
COc1ccc(C(=O)N2CC(=O)Nc3ccc(Br)cc3C2c2ccc(F)cc2)cc1OC (stereo not given),"inconclusive [inhibitor, single point]",
Cc1nnc(NCCc2ccccc2)c2ccccc12,active: 23.1 µM,
COc1cc(N)c(N)cc1OC,"inconclusive [inhibitor, partial curve]",
O=C(/C=C/c1ccc(F)cc1)N1CCCN(C(=O)/C=C/c2ccc(F)cc2)CC1,"inconclusive [inhibitor, single point]",
NNC(=O)c1cc(NS(=O)(=O)c2cccs2)cc(NS(=O)(=O)c2cccs2)c1,inactive,
O=C(CNc1cc([N+](=O)[O-])ccc1NCCO)Nc1cccc(S(=O)(=O)N2CCCCC2)c1,"inconclusive [inhibitor, single point]",
CC(Sc1nc2ccccc2c(=O)n1CC1CCCO1)C(=O)NC(C)c1ccccc1 (stereo not given),"inconclusive [inhibitor, single point]",
Clc1ccc(SCCOCCN2CCc3ccccc3C2)cc1,"inconclusive [inhibitor, single point]",
COCCNC(=S)c1ccc(OC)cc1,"inconclusive [inhibitor, full curve, poor fit]",
CC(C)(CCl)C(=O)Nc1ccnc(-c2ccncc2)n1,"inconclusive [inhibitor, single point]",
CC(=O)C1=CCC(c2ccc(C)cc2)N(S(=O)(=O)c2ccc(Cl)cc2)C1 (stereo not given),active: 16.4 µM,
CC(C)(C)C(=O)CSc1nnc(-c2cccs2)n1CC1CCCO1 (stereo not given),"inconclusive [inhibitor, partial curve]",
COC(=O)CN1C(=O)[C@H]2[C@@H](c3ccc(C)o3)N3C(=O)CN(Cc4ccccn4)C(=O)[C@@]3(Cc3ccccc3)[C@H]2C1=O,inactive,
Cc1cc(Nc2ccc3ccccc3c2)n2ncnc2n1,"inconclusive [inhibitor, single point]",
COc1ccc(Oc2ncc3nc(C)c(=O)n(-c4ccccc4)c3n2)cc1,inactive,
CC/C(=C\C(=O)c1ccncc1)Nc1ccc(Br)cc1,"inconclusive [inhibitor, partial curve]",

Structure (SMILES),Potency,"activity change, negative = growth inhibition"
CC(NC(=O)CCCc1ccccc1)c1ccncc1 (stereo not given),inactive,
CCCCNC(=O)Cc1coc2ccc3ccccc3c12,"inconclusive [inhibitor, single point]",
N#Cc1c(-c2ccccc2)nc(-c2ccccc2)nc1N1CCOCC1,"inconclusive [inhibitor, partial curve]",
Cc1cc(C)n(-c2ccc(Cl)c(C(=O)Nc3ccc(-c4nnc5n4CCCCC5)cc3)n2)n1,active: 1.84 µM,
O=C(CNC(c1ccccc1)c1ccccc1)Nc1ccc(F)cc1,inactive,
CC(NNC(=S)N1CCCCCC1)c1ccc2ccccc2n1 (stereo not given),active: 0.0082 µM,
Clc1ccc(-c2cc3ncc4c(n3n2)-c2ccccc2OC4)cc1,inactive,
CNS(=O)(=O)c1cccc(C(=O)OCCCOC(=O)c2cccc(S(=O)(=O)NC)c2)c1,,inconclusive: -36.1% [inhibitor]
CCN1C(=O)C(C(=O)NC(C)c2ccccc2)C2CC1(C)Oc1ccccc12 (stereo not given),"inconclusive [inhibitor, single point]",
O=C(CSc1nc2ccsc2c(=O)n1-c1ccc(Cl)cc1)NCc1ccc(Cl)cc1,"inconclusive [inhibitor, single point]",
Clc1ccc2c(c1)C1=C(C(c3ccncc3)O2)C(c2ccc(Br)cc2)n2ncnc2N1 (stereo not given),"inconclusive [inhibitor, single point]",
O=C(CO/N=C/c1ccccc1O)N1CCc2ccccc21,"inconclusive [inhibitor, single point]",
CCC(=O)c1ccc(OCC(=O)OCC(=O)N(CCC#N)c2ccc3c(c2)OCCO3)cc1,inactive,
COc1cccc(NC(=O)CSc2ccc3nnc(-c4ccccn4)n3n2)c1,inactive,
CC1CCN(c2nc(-c3ccc(C(C)(C)C)cc3)nc3ccccc23)CC1,"inconclusive [inhibitor, single point]",
CCOC(=O)[C@H]1[C@H]2COc3ccc(Br)cc3[C@@H]2N2C(=O)c3c(C)cc(C)cc3NC(=O)[C@@]12C,"inconclusive [inhibitor, single point]",
CCCCNC(=O)CSc1nnc(NC(C)=O)s1,,inconclusive: -28.3% [inhibitor]
c1ccc(N2CCN(c3nc4ccccc4n4cnnc34)CC2)cc1,"inconclusive [inhibitor, single point]",
COc1ccc(/C=C/CN2CCC(Oc3ccc(C(=O)N4CCCCC4)cc3)CC2)cc1,active: 14.6 µM,
CSc1ccc2cc(CNCc3ccccc3F)c(N3CCCC(CO)C3)nc2c1 (stereo not given),inactive,
O=c1c2ccccc2nc(SCc2cn3ccsc3n2)n1-c1ccc(F)cc1,"inconclusive [inhibitor, single point]",
Cc1ccc(NC(=S)NC(=O)c2cncc(Br)c2)cc1Cl,"inconclusive [inhibitor, single point]",
COc1ccc(N2CCN(C(=O)CCC(=O)N3CCOc4ccc(Cl)cc43)CC2)cc1,"inconclusive [inhibitor, partial curve, poor fit]",
COc1cc(C(=O)OCC(=O)c2ccccc2)cc2c1OCCO2,inactive,

Structure (SMILES),Potency,"activity change, negative = growth inhibition"
Cc1ccc(C(=O)Nc2cccc(C(=O)N3CCOCC3)c2)cc1Cl,"inconclusive [inhibitor, single point]",
CCC(=O)N1CCc2cc(S(=O)(=O)NCCC(=O)Nc3ccc(CC)cc3)ccc21,"inconclusive [inhibitor, single point]",
CCOc1ccc(NCc2nnc(SCC(=O)Nc3cc(C)on3)n2-c2ccccc2OC)cc1,"inconclusive [inhibitor, single point]",
O=C(O)CCCC(=O)Nc1ccc(N2CCCC2)cc1,,inconclusive: -32.9% [inhibitor]
C[C@H](CO)N1C[C@H](C)[C@@H](CN(C)S(=O)(=O)c2cn(C)cn2)Oc2ncc(Br)cc2C1=O,"inconclusive [inhibitor, full curve]",
CC(C)CNC(=O)Nc1cc(C(=O)NCc2ccc(C(C)C)cc2)ccc1N1CCCC1,"inconclusive [inhibitor, single point]",
CCOC(=O)C1CCN(C(=O)c2cccc(S(=O)(=O)Nc3ccc(C)cc3C)c2)CC1,"inconclusive [inhibitor, single point]",
N#C/C(=C\c1cccs1)C(=O)c1ccccc1Cl,active: 16.4 µM,
Cc1nc(C)n(CC(O)COc2ccc3c(c2)CCC3)n1 (stereo not given),inactive,
COc1ccc(Br)cc1/C=C/c1ccc2cccc(O)c2n1,active: 20.6 µM,
COc1ccccc1NC(=O)CSc1oc(-c2ccco2)nc1S(=O)(=O)c1ccc(C)cc1,"inconclusive [inhibitor, single point]",
Cn1c(=O)n(C)c2cc(NC(=O)c3ccc(F)cc3)ccc21,inactive,
CC(Nc1cc(N2CCOCC2)ccc1[N+](=O)[O-])c1ccccc1 (stereo not given),"inconclusive [inhibitor, single point]",
Cn1nc(-c2ccccc2)c(/C=N/O)c1Cl,inactive,
CCn1c(SCC(=O)N2CCN(c3ccccc3)CC2)nnc1-c1cc2cc(Cl)ccc2o1,"inconclusive [inhibitor, partial curve]",
COc1ccc(CCNC(=O)c2c(O)nc3ccccn3c2=O)cc1OC,"inconclusive [inhibitor, single point]",
O=C(Cn1cnc2ccccc2c1=O)Nc1nnc(SCc2ccc(Cl)cc2)s1,inactive,
O=C(c1cc(-c2cccc(O)c2)on1)N1CCOCC1,inactive,
CCCCOC(=O)Cc1c(O)c2ccccc2[nH]c1=O,inactive,
O=C(O)c1cccc(NS(=O)(=O)c2cc(S(=O)(=O)c3ccc(Cl)cc3)ccc2Cl)c1,inactive,
Cc1nn(-c2cccc(Cl)c2)c2c1C(c1cccnc1)C(C#N)=C(N)O2 (stereo not given),"inconclusive [inhibitor, single point]",
CN(C)c1ccc(C(C(=O)NCC2CCCO2)N(C(=O)c2snc(C(N)=O)c2N)c2ccc3c(c2)OCO3)cc1 (stereo not given),"inconclusive [inhibitor, single point]",
